Measured values reported in PubChem BioAssay (NCI).
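Interpolation was linear, between the two tested concentrations surrounding the appropriate level; five concentrations were tested over 48 hours in 96-well plates. The concentration for full growth arrest is given as TGI.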

How the values were obtained:
Experiment in all cases: NCI tumour cell line growth inhibition, 48 h
K-562 leukemia = system: K-562 leukemia
OVCAR-8 ovarian = system: OVCAR-8 ovarian
BT-549 breast = system: BT-549 breast
NCI-H460 lung = system: NCI-H460 lung
EKVX NSCLC = system: EKVX NSCLC
U251 CNS = system: U251 CNS
UACC-257 melanoma = system: UACC-257 melanoma
T-47D breast = system: T-47D breast
DU-145 prostate = system: DU-145 prostate
SF-295 CNS = system: SF-295 CNS
SNB-19 CNS = system: SNB-19 CNS
MDA-MB-231 breast = system: MDA-MB-231 breast
RPMI-8226 leukemia = system: RPMI-8226 leukemia
HCC-2998 colon = system: HCC-2998 colon
SNB-75 CNS = system: SNB-75 CNS
NCI/ADR-RES ovarian = system: NCI/ADR-RES ovarian
MOLT-4 leukemia = system: MOLT-4 leukemia
PC-3 prostate = system: PC-3 prostate
OVCAR-5 ovarian = system: OVCAR-5 ovarian
NCI-H23 lung = system: NCI-H23 lung
SW-620 colon = system: SW-620 colon
UO-31 renal = system: UO-31 renal
MCF7 breast = system: MCF7 breast
TK-10 renal = system: TK-10 renal
SK-MEL-2 melanoma = system: SK-MEL-2 melanoma
MDA-MB-435 = system: MDA-MB-435
HOP-92 NSCLC = system: HOP-92 NSCLC
RXF 393 renal = system: RXF 393 renal
ACHN renal = system: ACHN renal
SK-MEL-28 melanoma = system: SK-MEL-28 melanoma
786-0 renal = system: 786-0 renal
LOX IMVI melanoma = system: LOX IMVI melanoma
HCT-15 colon = system: HCT-15 colon
A549 NSCLC = system: A549 NSCLC
UACC-62 melanoma = system: UACC-62 melanoma
HCT-116 colon = system: HCT-116 colon
NCI-H226 lung = system: NCI-H226 lung
CAKI-1 renal = system: CAKI-1 renal
KM12 colon = system: KM12 colon
OVCAR-4 ovarian = system: OVCAR-4 ovarian
M14 melanoma = system: M14 melanoma
A498 renal = system: A498 renal
MDA-N = system: MDA-N
SK-OV-3 ovarian = system: SK-OV-3 ovarian
HOP-62 NSCLC = system: HOP-62 NSCLC
HS 578T breast = system: HS 578T breast
SF-268 CNS = system: SF-268 CNS
SN12C renal = system: SN12C renal
NCI-H522 lung = system: NCI-H522 lung
COLO 205 colon = system: COLO 205 colon
OVCAR-3 ovarian = system: OVCAR-3 ovarian

Question: O=C1Cc2c([nH]c3ccc(Br)cc23)-c2cccc(O)c2N1 was tested. Which TGI (K-562 leukemia) did it give?
Answer: > 100 µM

Question: And the TGI (OVCAR-8 ovarian)?
Answer: 41 µM

Question: And the TGI (BT-549 breast)?
Answer: 46.4 µM

Question: And the TGI (NCI-H460 lung)?
Answer: 66.9 µM

Question: And the TGI (EKVX NSCLC)?
Answer: > 100 µM

Question: And the TGI (U251 CNS)?
Answer: > 100 µM

Question: And the TGI (UACC-257 melanoma)?
Answer: 73 µM

Question: And the TGI (T-47D breast)?
Answer: 59.2 µM

Question: What about the TGI (DU-145 prostate) of the same molecule?
Answer: 92 µM

Question: And the TGI (SF-295 CNS)?
Answer: > 100 µM

Question: And the TGI (SNB-19 CNS)?
Answer: > 100 µM

Question: And the TGI (MDA-MB-231 breast)?
Answer: > 100 µM

Question: And the TGI (RPMI-8226 leukemia)?
Answer: 38.6 µM

Question: What about the TGI (HCC-2998 colon) of the same molecule?
Answer: 93.1 µM

Question: And the TGI (SNB-75 CNS)?
Answer: 98.3 µM

Question: And the TGI (NCI/ADR-RES ovarian)?
Answer: 53.4 µM

Question: And the TGI (MOLT-4 leukemia)?
Answer: > 100 µM

Question: What about the TGI (PC-3 prostate) of the same molecule?
Answer: > 100 µM

Question: What about the TGI (OVCAR-5 ovarian) of the same molecule?
Answer: > 100 µM

Question: What about the TGI (NCI-H23 lung) of the same molecule?
Answer: 66.5 µM

Question: What about the TGI (SW-620 colon) of the same molecule?
Answer: > 100 µM

Question: What about the TGI (UO-31 renal) of the same molecule?
Answer: > 100 µM

Question: And the TGI (MCF7 breast)?
Answer: > 100 µM

Question: What about the TGI (TK-10 renal) of the same molecule?
Answer: 89.7 µM

Question: And the TGI (SK-MEL-2 melanoma)?
Answer: > 100 µM

Question: What about the TGI (MDA-MB-435) of the same molecule?
Answer: > 100 µM

Question: What about the TGI (HOP-92 NSCLC) of the same molecule?
Answer: > 100 µM

Question: What about the TGI (RXF 393 renal) of the same molecule?
Answer: > 100 µM

Question: What about the TGI (ACHN renal) of the same molecule?
Answer: > 100 µM

Question: What about the TGI (SK-MEL-28 melanoma) of the same molecule?
Answer: > 100 µM

Question: What about the TGI (786-0 renal) of the same molecule?
Answer: > 100 µM

Question: What about the TGI (LOX IMVI melanoma) of the same molecule?
Answer: 59.8 µM

Question: And the TGI (HCT-15 colon)?
Answer: 44.3 µM

Question: What about the TGI (A549 NSCLC) of the same molecule?
Answer: > 100 µM

Question: What about the TGI (UACC-62 melanoma) of the same molecule?
Answer: > 100 µM

Question: What about the TGI (HCT-116 colon) of the same molecule?
Answer: > 100 µM

Question: What about the TGI (NCI-H226 lung) of the same molecule?
Answer: > 100 µM

Question: And the TGI (CAKI-1 renal)?
Answer: > 100 µM

Question: What about the TGI (KM12 colon) of the same molecule?
Answer: > 100 µM

Question: What about the TGI (OVCAR-4 ovarian) of the same molecule?
Answer: > 100 µM

Question: What about the TGI (M14 melanoma) of the same molecule?
Answer: > 100 µM

Question: What about the TGI (A498 renal) of the same molecule?
Answer: > 100 µM

Question: And the TGI (MDA-N)?
Answer: > 100 µM

Question: And the TGI (SK-OV-3 ovarian)?
Answer: > 100 µM

Question: What about the TGI (HOP-62 NSCLC) of the same molecule?
Answer: > 100 µM

Question: What about the TGI (HS 578T breast) of the same molecule?
Answer: 61 µM

Question: What about the TGI (SF-268 CNS) of the same molecule?
Answer: > 100 µM

Question: What about the TGI (SN12C renal) of the same molecule?
Answer: > 100 µM

Question: And the TGI (NCI-H522 lung)?
Answer: 42.2 µM

Question: And the TGI (COLO 205 colon)?
Answer: > 100 µM

Question: And the TGI (OVCAR-3 ovarian)?
Answer: 69.8 µM
